Scores with a large standard error are left out. The source holds two more conditions with little spread; they are left out. In variant names, del marks residues removed and ins residues inserted between the two positions. For some assays here: How much ogerin was present is not stated here.
B1: GPR68, Q15743 (parent)
chain: MGNITADNSSMSCTIDHTIHQTLAPVVYVTVLVVGFPANCLSLYFGYLQIKARNELGVYLCNLTVADLFYICSLPFWLQYVLQHDNWSHGDLSCQVCGILLYENIYISVGFLCCISVDRYLAVAHPFRFHQFRTLKAAVGVSVVIWAKELLTSIYFLMHEEVIEDENQHRVCFEHYPIQAWQRAINYYRFLVGFLFPICLLLASYQGILRAVRRSHGTQKSRKDQIQRLVLSTVVIFLACFLPYHVLLLVRSVWEASCDFAKGVFNAYHFSLLLTSFNCVADPVLYCFVSETTHRDLARLRGACLAFLTCSRTGRAREAYPLGAPEASGKSGAQGEEPELLTKLHPAFQTPNSPGSGGFPTGRLA

Columns and labels:
[1] = variants of: B1; assay: cAMP reporter score (Enrich2 score, wild type = 0); higher = more signal; HEK293T, FACS bins
[2] = variants of: B1; assay: surface expression score (Enrich2 score, wild type = 0); higher = more signal; HEK293T, FACS bins

Row | Variant | cAMP reporter score ([1]; pH 5.5) | cAMP reporter score ([1]; pH 6) | cAMP reporter score ([1]; pH 6, modulator: ogerin) | cAMP reporter score ([1]; pH 6.5, modulator: ogerin) | surface expression score [2]
1 | D91F | 0.789 | -0.391 | 0.997 | 0.034 | -0.061
2 | D91G | 0.915 | 1.76 | 1.43 | 2.8 | 0.623
3 | D91H | -0.05 | 1.22 | -0.456 | -0.67 | 
4 | D91I | 1.43 | 4.5 | 1.77 | 2.38 | -0.599
5 | D91K | 0.922 | 1.99 | 1.2 | 2.54 | 0.817
6 | D91L | -0.374 | 2.69 | 0.904 |  | 
7 | D91M | 0.121 | -1.31 | 0.246 | 0.08 | -0.659
8 | D91N | -0.158 | 0.512 | -0.439 | 0.587 | 0.088
9 | D91P | -0.534 | -0.601 | -0.363 | 0.724 | -1.55
10 | D91Q | 0.296 | 1.33 | 0.655 | 0.381 | -0.024
11 | D91R | 0.501 | 0.829 | 0.16 | 1.15 | 1.15
12 | D91S | 0.848 | 0.032 | 0.383 | 0.186 | 1.96
13 | D91T | 1.34 | 0.498 | 0.663 | -0.47 | 1.77
14 | D91V | 0.491 | 0.223 | -0.174 | 0.298 | -0.168
15 | D91W | 0.518 |  | 0.614 | 2.2 | 0.838
16 | D91Y | 0.097 | -0.673 | 0.157 | -0.337 | -0.311
17 | D91_L92del | -1.96 | -1.11 | -1.64 | -1.21 | -1.13
18 | D91_L92insGSG | -1.01 | -0.377 | -0.674 | -1.06 | -0.934
19 | L92A | 0.174 | -0.189 | 0.448 | -0.372 | -0.147
20 | L92C | 0.154 | -1.14 | -1.12 |  | -0.116
21 | L92D | -0.847 | -1.6 | -1.05 | -0.886 | -2.02

Row | Variant | cAMP reporter score ([1]; pH 5.5) | cAMP reporter score ([1]; pH 6) | cAMP reporter score ([1]; pH 6, modulator: ogerin) | cAMP reporter score ([1]; pH 6.5, modulator: ogerin) | surface expression score [2]
22 | L92F | -0.157 | 0.226 | -0.211 | 0.757 | -0.752
23 | L92G | 0.492 | -0.401 | 0.401 | -0.878 | -0.332
24 | L92H | -0.353 | -0.417 | -0.461 | 1.26 | -1.07
25 | L92I | 0.565 | -0.637 | 1.63 | 0.386 | 1.9
26 | L92K | 0.352 | 0.77 | 0.019 | -0.32 | 0.365
27 | L92M | -0.546 | -0.432 | -0.49 | -1.03 | -0.63
28 | L92N | -0.747 | -1.32 | -1.5 | -1.2 | -0.993
29 | L92P | 0.088 | -0.276 | -0.56 | -0.439 | 0.193
30 | L92Q | -0.578 | -1.44 | -1.11 | -1.49 | -0.786
31 | L92R | -0.597 | -1.65 | -1.06 | -1.03 | -0.067
32 | L92S | -0.438 | 0.439 | -1.06 | -0.972 | -0.989
33 | L92T | 0.267 | -0.768 | -0.339 | -0.045 | 0.444
34 | L92V | -0.415 | -0.969 | -0.685 | -0.806 | -0.794
35 | L92W | 2.66 | 3.94 | 2.43 | 3.59 | 3.34
36 | L92Y | 0.814 | -0.492 | 0.15 | -0.186 | 0.853
37 | L92_S93del | -1.1 | -0.058 | -0.996 | -0.64 | -1.96
38 | L92del | -1.42 | -0.984 | -1.45 | -1.31 | -1.25
39 | S93_C94insG | -0.404 | -0.634 |  | -1.3 | -3.35
40 | S93_C94insGS | -1.83 | -1.12 | -1.44 | -0.035 | -1.7
41 | C94del | -1.38 | -0.847 | -1.39 | -1.28 | -2.04
42 | Q95A | 1.11 |  |  | 2.98 | 0.279

Row | Variant | cAMP reporter score ([1]; pH 5.5) | cAMP reporter score ([1]; pH 6) | cAMP reporter score ([1]; pH 6, modulator: ogerin) | cAMP reporter score ([1]; pH 6.5, modulator: ogerin) | surface expression score [2]
43 | Q95C | 0.08 | 0.484 | 0.283 | 1.99 | -0.652
44 | Q95D | 0.406 |  | -0.85 | -0.846 | 
45 | Q95E | 0.422 | -1.11 | -0.257 | -0.623 | -0.732
46 | Q95F | 0.136 | 4.71 | -0.438 | 3.86 | -0.389
47 | Q95G | 0.813 | 2.84 | 0.907 | 1.19 | -1.31
48 | Q95H | 1.63 |  | 2.03 | 3.17 | 1.7
49 | Q95I | -0.336 | 2.44 | 0.328 | 2.93 | -0.745
50 | Q95K | 0.634 | 1.07 | 0.772 | 1.62 | 1.17
51 | Q95L | -1.6 | -0.314 |  | -1.43 | 
52 | Q95M | 0.647 | 3.12 | 1.17 | 2.51 | 0.295
53 | Q95N | -0.469 | 0.496 | 0.38 | 1.92 | -0.276
54 | Q95P | -1.56 | 0.067 | -1.82 | -0.829 | -3.37
55 | Q95R | -0.374 | -0.071 | -0.695 | -0.401 | 0.232
56 | Q95S | 2.19 | 5.17 | 2.72 | 5.44 | 1.27
57 | Q95T | -0.347 |  | 0.378 | 2.46 | -0.178
58 | Q95V | -1.45 |  | -0.958 | 1.24 | 
59 | Q95W | -0.543 |  | -0.602 | 0.077 | 
60 | Q95Y | 0.154 |  | 0.448 |  | -0.79
61 | Q95_V96del | -1.6 | -0.863 | -1.25 | -0.89 | -2.54
62 | Q95_V96insGSG | 0.279 |  | -1.55 | -0.059 | -2.18
63 | Q95del | -0.994 |  | -0.581 | -0.535 | -0.765
